B1: S001-SIM4 (Fc fusion)
scFv: DVVMTQTPLSLPVTPGEPASISCRSSQSLVHSNANTYLHWYLQKPGQSPQLLIYKVSNRFSGVPDRFSGSGSGTDFTLKISRVEAEDVGVYYCSQNTHVPPTFGQGTKLEIKGGGGSGGGGSGGGGSEVQLVQSGAEVKKPGASVKVSCKASGYTFTDYEMHWVRQAPGQRLEWMGALDPKTGDTAYSQKFKGRVTLTADTSASTAYMELSSLRSEDTAVYYCTRFYSYTYWGQGTLVTVSS[here human IgG1 Fc with changes without letters]
notes: also called anti-GPC3 humanized antibody
B2: S001-SIM2 (Fc fusion)
scFv: DIVMTQTPLSLPVTPGEPASISCRSSQSLVHSNGNTYLHWYLQKPGQSPQLLIYKVSNRFSGVPDRFSGSGSGTDFTLKISRVEAEDVGVYYCSQNTHVPPTFGQGTKLEIKGGGGSGGGGSGGGGSEVQLVQSGAEVKKPGASVKVSCKASGYTFTDYEMHWVRQAPGQRLEWMGALDPKTGDTAYSQKFKGRVTLTADTSASTAYMELSSLRSEDTAVYYCTRFYSYTYWGQGTLVTVSS[here human IgG1 Fc with changes without letters]
notes: as for B1
B3: S001-SIM3 (Fc fusion)
scFv: DVVMTQTPLSLPVTPGEPASISCRSSQSLVHSNANTYLHWYLQKPGQSPQLLIYKVSNRFSGVPDRFSGSGSGTDFTLKISRVEAEDVGVYYCSQNTHVPPTFGQGTKLEIKGGGGSGGGGSGGGGSEVQLVQSGAEVKKPGASVKVSCKASGYTFTDYEMHWVRQAPGQRLEWMGALDPKTGDTAYSQKFKGRVTITADTSASTAYMELSSLRSEDTAVYYCTRFYSYTYWGQGTLVTVSS[here human IgG1 Fc with changes without letters]
notes: as for B1
B4: S001-SIM5 (Fc fusion)
scFv: DVVMTQTPLSLPVTPGEPASISCRSSQSLVHSNANTYLHWYLQKPGQSPQLLIYKVSNRFSGVPDRFSGSGSGTDFTLKISRVEAEDVGVYYCSQNTHVPPTFGQGTKLEIKGGGGSGGGGSGGGGSEVQLVQSGAEVKKPGASVKVSCKASGYTFTDYEMHWVRQAPGQGLEWMGALDPKTGDTAYSQKFKGRVTLTADKSASTAYMELSSLRSEDTAVYYCTRFYSYTYWGQGTLVTVSS[here human IgG1 Fc with changes without letters]
notes: as for B1
B5: Y035 scFv-hFc (Fc fusion)
scFv: DIVMTQTPLSLPVITGEPASISCRSSQSLVHSNGNTYLQWYLQKPGQSPQLLIYKVSNRFSGVPDRFSGSGSGTDFTLKISRVEAEDVGVYYCSQSIYVPYTFGQGTKLEIKRGGGGSGGGGSGGGGSEVQLVQSGAEVKKPGASVKVSCKASGYTFSDYEMHWVRQAPGQGLEWMGAIHPGSGDTAYNQRFKGRVTITADKSTSTAYMELSSLRSEDTAVYYCARFYSYAYWGQGTLVTVSA[here human IgG1 Fc with changes without letters]
notes: Control antibody in the form scFv-human IgG1 Fc; also called antibody Y035
B6: T2-23 scFv-hFc (Fc fusion)
scFv: QSALTQPPSASGSPGQSVTISCTGTSSDVGGYNYVSWYQQYPGKAPKLLIYGNSNRPSGVPDRFSGSKSGTSASLAITGLQAEDGADYYCQSYDSSLRVVFGGGTKVTVLGGGGGSGGGGSGGGGSQVQLQESGGGLVQPGRSLRLSCAASGFTFSSYAMHWVRQAPGKGLEWVSAISSSGRSTYYADSVEGRFTISRDNSKNTLYLQMNSLRAEDTAVYYCAKDRRGSHADALNVWGQGTLVTVSS[here human IgG1 Fc with changes without letters]
notes: Control antibody in the form scFv-human IgG1 Fc; also called antibody T2-23

Each binder was assayed against T1, murine GPC3-His protein (murine, UniProt Q8CFZ4 25-558, limits assumed) (assay: ELISA, coated murine GPC3-His).
T1 construct: Bought protein; also called murine GPC3 protein; not shown: His tag

Binder | binding result
B1 | no binding (tested: 100 nM)
B2 | no binding (tested: 100 nM)
B3 | no binding (tested: 100 nM)
B4 | no binding (tested: 100 nM)
B5 | no binding (tested: 100 nM)

The binders below were run against T2, human GPC3, full length, on cells (human, UniProt P51654 25-554) (assay: FACS on CHO-K1-human GPC3 cells).
T2 construct: whole, on cells; also called CHO-K1-human GPC3 cells; CHOK1-hGPC3
Description: (§1) Data analysis was performed by software (FlowJo) to obtain the mean fluorescence intensity (MFI) of the cells. Then, analysis was performed by software (GraphPad Prism8), data were fitted, and EC₅₀ values were calculated.

Binder | EC50 | Max MFI
B1 | 0.99 nM | 14900
B2 | 1 nM | 14300
B3 | 0.91 nM | 14900
B4 | 0.72 nM | 14800
B5 | 3.51 nM | 8550

What follows are binders tested against T3, monkey GPC3, full length, on HEK293T cells (monkey) (assay: FACS on HEK293T-monkey GPC3 cells).
T3 construct: whole, on cells; also called HEK293T-monkey GPC3 cells; HEK293T-cynoGPC3
Description: as §1

Binder | EC50 | Max MFI
B1 | 1.35 nM | 89200
B2 | 1.43 nM | 97100
B3 | 1.42 nM | 98100
B4 | 1.3 nM | 93200
B5 | 5.24 nM | 52700
B6 | 0.56 nM | 36700

Target: T4, Polypeptide GC3pep of human GPC3 (Ala524-Lys563) (human)
T4 construct: Membrane proximal end of human GPC3, coated on the ELISA plate; also called polypeptide GC3pep protein; GC3pep polypeptide protein
T4 peptide: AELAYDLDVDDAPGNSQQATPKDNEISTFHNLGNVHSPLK
Assay: ELISA, coated GC3pep, antibody 10 nM
Description: (§2) After incubation at 37° C. for 2 h, the plate was washed 3 times with PBS.

Binder | OD450
B1 | 2.41
B2 | 2.45
B3 | 2.38
B4 | 2.43
B5 | 2.27

Target: T4, Polypeptide GC3pep of human GPC3 …
Assay: ELISA, coated GC3pep, antibody 0.1 nM
Description: as §2

Binder | OD450
B1 | 0.94
B2 | 1.03
B3 | 0.93
B4 | 0.85
B5 | 0.57

Target: T4, Polypeptide GC3pep of human GPC3 …
Assay: ELISA, coated GC3pep, antibody 100 nM
Description: as §2

Binder | OD450
B1 | 2.39
B2 | 2.22
B3 | 2.21
B4 | 2.4
B5 | 2.22

Target: T4, Polypeptide GC3pep of human GPC3 …
Assay: ELISA, coated GC3pep, antibody 0.01 nM
Description: as §2

Binder | OD450
B1 | 0.17
B2 | 0.17
B3 | 0.16
B4 | 0.18
B5 | 0.12

Each binder was assayed against T5, human GPC3-His protein (human, UniProt P51654 25-559) (assay: ELISA, coated human GPC3-His, antibody 1 nM).
T5 construct: Bought protein; also called human GPC3 protein; not shown: His tag
Description: as §2

Binder | OD450
B1 | 2.12
B2 | 1.95
B3 | 1.95
B4 | 2.04
B5 | 2.15

Each binder was assayed against T5, human GPC3-His protein (assay: ELISA, coated human GPC3-His, antibody 10 nM).
Description: as §2

T5 sequence (P51654 25-559 limits assumed): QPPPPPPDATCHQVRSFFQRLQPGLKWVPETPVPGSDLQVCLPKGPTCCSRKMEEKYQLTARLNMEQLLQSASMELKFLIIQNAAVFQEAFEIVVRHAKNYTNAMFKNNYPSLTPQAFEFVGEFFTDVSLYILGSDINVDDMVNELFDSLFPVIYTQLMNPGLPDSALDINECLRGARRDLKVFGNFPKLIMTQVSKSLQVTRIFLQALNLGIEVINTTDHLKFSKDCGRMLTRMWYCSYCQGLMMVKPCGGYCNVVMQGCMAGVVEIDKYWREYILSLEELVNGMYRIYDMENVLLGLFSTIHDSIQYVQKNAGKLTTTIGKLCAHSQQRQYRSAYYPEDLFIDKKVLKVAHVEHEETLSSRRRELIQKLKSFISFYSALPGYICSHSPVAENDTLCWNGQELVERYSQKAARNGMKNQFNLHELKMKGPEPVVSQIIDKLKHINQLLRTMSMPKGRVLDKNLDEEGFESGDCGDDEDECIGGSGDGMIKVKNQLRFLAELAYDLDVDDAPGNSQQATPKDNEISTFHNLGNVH

Binder | OD450
B1 | 2.31
B2 | 2.17
B3 | 2.25
B4 | 2.27
B5 | 2.44

What follows are binders tested against T1, murine GPC3-His protein (assay: ELISA, coated murine GPC3-His, antibody 1 nM).
Description: as §2

T1 sequence (Q8CFZ4 25-558 limits assumed): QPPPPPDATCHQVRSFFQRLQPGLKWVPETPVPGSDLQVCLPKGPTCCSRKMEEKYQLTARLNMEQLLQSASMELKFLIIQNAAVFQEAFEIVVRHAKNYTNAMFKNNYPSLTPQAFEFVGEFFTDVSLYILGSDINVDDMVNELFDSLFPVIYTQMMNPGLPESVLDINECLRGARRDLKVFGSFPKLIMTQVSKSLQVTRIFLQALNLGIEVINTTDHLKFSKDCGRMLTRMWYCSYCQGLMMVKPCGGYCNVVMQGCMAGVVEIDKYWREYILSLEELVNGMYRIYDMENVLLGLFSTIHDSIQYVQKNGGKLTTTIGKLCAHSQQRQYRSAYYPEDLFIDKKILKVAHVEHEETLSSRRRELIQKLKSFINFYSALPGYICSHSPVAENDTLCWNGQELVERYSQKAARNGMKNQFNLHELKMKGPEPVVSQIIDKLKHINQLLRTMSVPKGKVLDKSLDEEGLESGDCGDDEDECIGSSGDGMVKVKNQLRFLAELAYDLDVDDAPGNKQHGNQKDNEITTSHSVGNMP

Binder | OD450
B1 | 0.05
B2 | 0.06
B3 | 0.06
B4 | 0.05
B5 | 0.05
B6 | 1.5

What follows are binders tested against T5, human GPC3-His protein (assay: ELISA, coated human GPC3-His, antibody 100 nM).
Description: as §2

Binder | OD450
B1 | 2.51
B2 | 2.25
B3 | 2.2
B4 | 2.26
B5 | 2.36

What follows are binders tested against T1, murine GPC3-His protein (assay: ELISA, coated murine GPC3-His, antibody 10 nM).
Description: as §2

Binder | OD450
B1 | 0.05
B2 | 0.07
B3 | 0.05
B4 | 0.1
B5 | 0.05
B6 | 1.7

Each binder was assayed against T1, murine GPC3-His protein (assay: ELISA, coated murine GPC3-His, antibody 0.1 nM).
Description: as §2

Binder | OD450
B1 | 0.05
B2 | 0.05
B3 | 0.07
B5 | 0.04
B6 | 0.99

Each binder was assayed against T1, murine GPC3-His protein (assay: ELISA, coated murine GPC3-His, antibody 100 nM).
Description: as §2

Binder | OD450
B1 | 0.11
B2 | 0.11
B3 | 0.2
B4 | 0.1
B5 | 0.38
B6 | 1.71

The binders below were run against T6, monkey GPC3-His protein (monkey, UniProt A0A2K5VK50 24-553, Natural GPC3 can be cut by furin into alpha (24-357) and beta (358-553) subunits joined by disulfide bonds. It is given here as one polypeptide. The heparan sulfate chains and the His tag are not …) (assay: ELISA, coated monkey GPC3-His, antibody 0.1 nM).
T6 construct: Bought protein; also called monkey GPC3 protein
Description: as §2

Binder | OD450
B1 | 1.77
B2 | 1.66
B3 | 1.7
B4 | 1.71
B5 | 1.31

What follows are binders tested against T1, murine GPC3-His protein (assay: ELISA, coated murine GPC3-His, antibody 0.01 nM).
Description: as §2

Binder | OD450
B6 | 0.26

The binders below were run against T6, monkey GPC3-His protein (assay: ELISA, coated monkey GPC3-His, antibody 0.01 nM).
Description: as §2

Binder | OD450
B1 | 0.44
B2 | 0.44
B3 | 0.44
B4 | 0.47
B5 | 0.36

Each binder was assayed against T1, murine GPC3-His protein (assay: ELISA, coated murine GPC3-His, antibody 0.001 nM).
Description: as §2

Binder | OD450
B6 | 0.07

Each binder was assayed against T1, murine GPC3-His protein (assay: ELISA, coated murine GPC3-His, antibody 0.0001 nM).
Description: as §2

Binder | OD450
B6 | 0.05

These binders were tested against T5, human GPC3-His protein (assay: SPR, antibody captured on Protein A chip, human GPC3-His as analyte, 1:1 model).
Description: (§3) The sample and running buffer was HBS-EP+ (10 mM HEPES, 150 mM NaCl, 3 mM EDTA, 0.05% surfactant P20) (GE Healthcare; BR-1006-69). The flow cell was set at 25° C. The sample block was set at 16° C. Both were pretreated with the running buffer. […] The association and dissociation processes of the antibody with the antigen protein were recorded, and finally, the chip was regenerated using Glycine pH 1.5 (GE Healthcare; BR-1003-54). […] The dissociation phase was monitored for up to 600 s and triggered by switching from the sample solution to the running buffer. The surface was regenerated by washing with 10 mM glycine solution (pH 1.5) at a flow rate of 30 μL/min for 30 s. The difference in bulk refractive index was corrected by subtracting the responses obtained from the goat anti-human Fc surface. […] To calculate the apparent KD and other kinetic parameters, the Langmuir 1:1 model was used.

Binder | Kd | koff | kon
B1 | 1.96 nM | 0.000367 s⁻¹ | 187000 M⁻¹ s⁻¹
B2 | 2.04 nM | 0.000391 s⁻¹ | 192000 M⁻¹ s⁻¹
B3 | 2.12 nM | 0.000411 s⁻¹ | 194000 M⁻¹ s⁻¹
B4 | 1.07 nM | 0.000225 s⁻¹ | 211000 M⁻¹ s⁻¹
B5 | 1.76 nM | 0.000273 s⁻¹ | 155000 M⁻¹ s⁻¹

These binders were tested against T6, monkey GPC3-His protein (assay: SPR, antibody captured on Protein A chip, monkey GPC3-His as analyte, 1:1 model).
Description: as §3

Binder | Kd | koff | kon
B1 | 1.19 nM | 0.000366 s⁻¹ | 308000 M⁻¹ s⁻¹
B2 | 1.47 nM | 0.000407 s⁻¹ | 276000 M⁻¹ s⁻¹
B3 | 1.13 nM | 0.000383 s⁻¹ | 338000 M⁻¹ s⁻¹
B4 | 0.541 nM | 0.000203 s⁻¹ | 375000 M⁻¹ s⁻¹
B5 | 1.27 nM | 0.000313 s⁻¹ | 247000 M⁻¹ s⁻¹

— US20240301085A1 (SIMCERE ZAIMING PHARMACEUTICAL, published 2024)
